Measurements published in PubChem BioAssay AID488969 (Vanderbilt High Throughput Screening Facility, 2010).
Over roughly 110,000 compounds, “z-score” has its median near -0.1; the highest 2% begin near 2. The list shows a part of the results. Calls of active or inactive are those of the source.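 Rule for the calls: active = z-score in the third read window above 3 or below -3; inactive = the rest.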

These compounds were tested against Metabotropic glutamate receptor 8 (Rattus norvegicus) (UniProt P70579) (assay: rat mGluR8 modulators via GIRK flux, primary screen, cell-based, thallium flux, HTS (AID 488969)). Conditions: HEK293 rat mGluR8, GIRK (G protein-gated inwardly rectifying potassium channel) thallium flux, FluoZin2; at 10 µM; stronger effect = higher value; submaximal glutamate (EC20) added with thallium.
Sequence of UniProt P70579 (P70579 whole entry, looked up): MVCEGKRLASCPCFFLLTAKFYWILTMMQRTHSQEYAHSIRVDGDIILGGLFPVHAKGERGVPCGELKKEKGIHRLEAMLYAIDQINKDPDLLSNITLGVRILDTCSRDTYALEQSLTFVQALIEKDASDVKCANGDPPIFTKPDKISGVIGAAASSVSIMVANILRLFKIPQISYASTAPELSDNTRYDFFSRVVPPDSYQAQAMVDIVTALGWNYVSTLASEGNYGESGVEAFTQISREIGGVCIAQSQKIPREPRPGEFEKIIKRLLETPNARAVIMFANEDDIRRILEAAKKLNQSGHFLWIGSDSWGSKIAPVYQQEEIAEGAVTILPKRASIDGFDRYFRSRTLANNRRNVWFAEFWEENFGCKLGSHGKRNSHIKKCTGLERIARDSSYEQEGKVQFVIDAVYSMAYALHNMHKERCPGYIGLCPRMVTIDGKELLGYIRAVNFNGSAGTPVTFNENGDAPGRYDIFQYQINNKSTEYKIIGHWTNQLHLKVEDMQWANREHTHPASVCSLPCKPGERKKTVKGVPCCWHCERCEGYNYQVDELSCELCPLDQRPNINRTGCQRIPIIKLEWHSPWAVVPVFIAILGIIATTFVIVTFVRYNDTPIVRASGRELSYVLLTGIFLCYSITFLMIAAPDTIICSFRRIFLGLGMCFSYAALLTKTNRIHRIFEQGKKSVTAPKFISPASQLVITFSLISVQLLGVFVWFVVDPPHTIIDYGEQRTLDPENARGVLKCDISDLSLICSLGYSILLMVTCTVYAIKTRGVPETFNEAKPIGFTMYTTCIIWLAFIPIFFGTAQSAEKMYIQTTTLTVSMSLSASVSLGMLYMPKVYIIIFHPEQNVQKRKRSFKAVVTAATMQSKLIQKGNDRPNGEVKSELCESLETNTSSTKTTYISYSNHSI

| SMILES | z-score |
| --- | --- |
| CCOc1ccc(S(=O)(=O)Nc2ccccn2)c2ccccc12 | -0.297 |
| CN(Cc1ccccc1)C(=O)c1cc2ccccc2o1 | -0.372 |
| O=C(Cn1ncc2c1-c1ccccc1OC2)N1CCc2ccccc21 | 0.541 |
| Cn1c(=O)c2c(SCc3ccccn3)nc(CC(C)(C)C)nc2n(C)c1=O | -0.691 |
| NC(=O)Cn1c(=O)oc2ccccc21 | -0.209 |
| COc1cccc(/C=N/n2c(-c3ccco3)nc3ccccc3c2=O)c1 | 0.151 |
| O=C(NCCN1C(=O)S/C(=C\c2ccc(OC(F)F)cc2)C1=O)[C@@H]1CCCN1C(=O)c1cccs1 | -0.589 |
| O=C(CS(=O)(=O)Cc1ccccc1)Nc1ccc(S(=O)(=O)N2CCCCCC2)cc1 | 0.185 |
| CCN(CC)S(=O)(=O)c1ccc(NC(=O)c2ccc(CN3CCOCC3)cc2)cc1 | -0.269 |
| COc1ccc2[nH]c(=O)c(COC(=O)c3ccco3)cc2c1 | -0.171 |
| CC(C)C[C@H](NC(=O)OC(C)(C)C)C(=O)N1CCC(C(=O)N[C@@H](Cc2ccccc2)C(=O)O)CC1 | 0.348 |
| COC(=O)c1cc(NC(=O)CC2C(=O)NCCN2C(=O)c2ccccc2)cc(C(=O)OC)c1 (stereo not given) | 0.0785 |
| CC1(C)Nc2ccc(O)cc2-c2c1ssc2=S | -0.0445 |
| COc1ccc(C(=O)Nc2cccc3c2C(=O)NC3=O)cc1S(=O)(=O)N1CCOCC1 | -0.063 |
| O=C(NN=C1CCCCC1)NC1CCCCC1 | 0.05 |
| Cc1csc(NC(=O)CSc2nnc(-c3ccc(S(=O)(=O)N4CCCC4)cc3)o2)n1 | -0.38 |
| NC(=O)COC(=O)c1ccc(Cl)c(S(=O)(=O)N(Cc2ccccc2)c2ccc(Cl)cc2)c1 | -0.251 |
| CCCc1cc(=O)oc2cc(OCC(=O)Nc3ccc4c(c3)OCCO4)ccc12 | -0.0823 |
| COc1ccc(C(=O)Cn2nnc(-c3ccccc3F)n2)cc1 | -0.251 |
| CCOC(=O)C(CC)n1cnc2c(nnn2-c2ccc(OC)cc2)c1=O (stereo not given) | active: 4.43 |
| CC(C)C(NS(=O)(=O)c1ccc2c(c1)OCCCO2)C(=O)O (stereo not given) | -0.152 |
| CCOC(=O)c1c(NC(=O)c2nn(CC)cc2Br)c(C#N)cn1-c1ccccc1 | -1.86 |

| SMILES | z-score |
| --- | --- |
| N#CCCN(C(=O)Nc1ccccc1)c1ccccc1 | -0.0757 |
| CCS(=O)(=O)n1nc(-c2ccc(OC)cc2)nc1SC | -0.342 |
| Cc1ccc(S(=O)(=O)Cc2c(C)noc2C)cc1 | -0.0187 |
| CCCOc1cccc(OCCSc2nc(C)cc(=O)[nH]2)c1 | active: -3.02 |
| COc1ccccc1C(=O)NC1CCCCCCC1 | -0.217 |
| CCc1cccc(NC(=O)Cn2cc3c(n2)CCCC3)c1 | 0.22 |
| Cc1ccc(C(c2nnnn2CCc2ccccc2)N2CCSCC2)cc1 (stereo not given) | -0.216 |
| COc1ccc2nc(NC(=O)CSc3nc(SC)ns3)sc2c1 | 0.0066 |
| CC1=C(C)CC(C(=O)NNC(=O)c2csc(C)c2C)C(C(=O)O)C1 (stereo not given) | 0.192 |
| CN1CCN(c2ncnc3c2sc2nc(N4CCOCC4)c4c(c23)CCC4)CC1 | -0.0846 |
| COc1ccccc1C(=O)NCCCNc1ccc([N+](=O)[O-])cc1 | -0.13 |
| COC(=O)CN1C(=O)Nc2ccc(Br)cc2C1c1ccccc1Cl (stereo not given) | -0.585 |
| O=C(O)CCN1C(=O)C2CCCCC2C1=O (stereo not given) | 1.58 |
| COc1cc(/C=C/C(=O)c2ccc(NS(=O)(=O)c3ccc(C)cc3)cc2)cc(OC)c1O | -0.309 |
| COC(=O)Nc1ccc(=O)n(Cc2c(Cl)cccc2Cl)c1 | 0.00945 |
| CC1=NN(C(=O)Cn2nc([N+](=O)[O-])c(Br)c2C)C(O)(C(F)(F)F)C1 (stereo not given) | 0.658 |
| Cc1ccc2cc(CN(CCN3CCCC3)C(=O)Nc3ccccc3)c(=O)[nH]c2c1C | -0.236 |
| CC(=O)c1ccc(NC(=O)Nc2ccc(Cl)cc2)cc1 | -1.17 |
| Cc1ccc(CNC(=O)c2ccc(COc3ccccc3)cc2)cc1 | 0.578 |
| C(=C\c1ccccc1)/C=N/Nc1nc2ccccc2[nH]1 | -0.7 |
| CC(NC(=O)CCOc1ccccc1)c1ccccc1 (stereo not given) | -0.161 |
| CC(O)c1nc2ccc(Cc3ccc4nc(C(C)O)[nH]c4c3)cc2[nH]1 (stereo not given) | 0.142 |

| SMILES | z-score |
| --- | --- |
| O=C1OCCC1Sc1nnc(-c2ccc(O)cc2)o1 (stereo not given) | 0.567 |
| COc1cc2oc3ccccc3c2cc1N(CC(=O)N1CCCCC1)S(=O)(=O)c1ccc(C)cc1 | 0.516 |
| Cc1cc(C)n(C(=O)c2ccc([N+](=O)[O-])c(Cl)c2)n1 | 0.00234 |
| COc1ccc(CCN(C(=O)c2ccccc2)C2=CC3CCC(C2)N3C)cc1OC (stereo not given) | 0.0177 |
| CCOC(=O)c1ccc(NC(=O)CSc2nccn2C)cc1 | 0.155 |
| CN(Cc1cccs1)C(=O)Cc1c[nH]c2ccccc12 | 0.00967 |
| Cc1nc2c(cnn2-c2ccccc2Cl)c(=O)n1-c1ccc(C(C)C)cc1 | -1.26 |
| CN(C)c1nc(N/N=C\c2ccc(Cl)c([N+](=O)[O-])c2)nc(Nc2ccc(F)cc2)n1 | 0.137 |
| CCOC(=O)CSc1nnc(NC(=O)c2cccc([N+](=O)[O-])c2)s1 | 0.00484 |
| CC(C)Cn1cc(C(=O)NCCCOC(C)C)c2c3ccccc3n(C)c2c1=O | -0.486 |
| CCn1c(SCC(=O)Nc2cc(C)on2)nc2c(c1=O)SC(C)C2 (stereo not given) | -0.77 |
| CC(C)CC(=O)NC(c1ccccc1Cl)c1c(O)ccc2ccccc12 (stereo not given) | -0.161 |
| CCN1CCN(C(=O)CCNC(=O)Cn2ccc3ccccc3c2=O)CC1 | 0.0922 |
| Cc1ccc(-c2csc(N(Cc3ccccc3)C(=O)COc3ccccc3)n2)cc1 | -0.0539 |
| Cc1ccc(N2CC(C(=O)OCc3ccccc3F)CC2=O)cc1 (stereo not given) | -0.6 |
| Cc1cc(C)c(C(=O)CSc2nc(C)cc(C)c2C(N)=O)c(C)c1 | 0.0493 |
| Cc1ccc(S(=O)(=O)Nc2ccc(NC(=O)Nc3ccc(F)cc3F)cc2)cc1 | -0.139 |
| COCCn1nnnc1CN1CCC(NC(=O)c2ccc(Br)cc2)CC1 | 0.559 |
| COc1ccccc1-c1nc(C(F)(F)F)c(OC)o1 | -0.631 |
| CCOC(=O)C1CCN(c2nc3ccccc3nc2C(C#N)C(=O)OCCOC)CC1 (stereo not given) | -0.177 |
| Cc1ccc(C(=O)CSc2nnc(-c3ccc4[nH]c(C)c(C)c4c3)o2)cc1C | -0.088 |
| CCCCC(CC)CNC(=O)C1CC=CCC1C(=O)O (stereo not given) | -0.174 |

| SMILES | z-score |
| --- | --- |
| Cc1ccc2c(c1)c(C)c(C)n2CC(O)CN1CCOCC1 (stereo not given) | 0.188 |
| CN(c1cccc(NC(=O)c2ccccc2N(C)S(=O)(=O)c2ccccc2)c1)S(C)(=O)=O | -0.199 |
| CCC(=O)Nc1cccc2c1C(=O)N(C)C2=O | -0.0595 |
| COc1cccc(/C=N/n2c(-c3n[nH]c4c3CCC4)n[nH]c2=S)c1O | -0.0945 |
| COC(=O)c1ccccc1NC(=O)CN1C(=O)c2ccccc2S1(=O)=O | -0.461 |
| CC/C(=N\N=C1\SC(C)C(=O)N1Cc1ccco1)c1ccccc1 (stereo not given) | -0.0986 |
| Cc1ccnc(N2CCC(C(=O)Nc3nnc(C)s3)CC2)n1 | -0.616 |
| CCCCC(=O)c1c(O)c2ccccc2oc1=O | -0.315 |
| CCCCN1C(=O)CC(N2CCOCC2)C1=O (stereo not given) | -0.0831 |
| O=C(O)C1CCCN1S(=O)(=O)c1ccc(Br)s1 (stereo not given) (tested in a mixture with another compound) | 0.764 |
| CCOC(=O)c1[nH]c(C)c(CCC(=O)OC)c1C | 0.104 |
| CCc1nnc(NC(=O)CCC(=O)N2CCN(Cc3ccccc3)CC2)s1 | 0.363 |
| CC(C)(C)C1=Nn2c(nnc2-c2n[nH]c3c2CCC3)SC1 | 0.964 |
| COc1ccc(O)c(-c2cc(C(F)(F)C(F)F)nc(-c3ccccc3)n2)c1 | -0.115 |
| CCOc1ccc(NC2=NCC(=O)N2Cc2cccs2)cc1 | -1.01 |
| COc1ccc2c(C(=O)CN3CCC(C)CC3)c[nH]c2c1 | 0.0332 |
| O=C1CC(SCc2nc3ccccc3[nH]2)C(=O)N1c1cccc(F)c1 (stereo not given) | -0.0666 |
| CC(=O)Nc1ccccc1OCC(=O)c1ccc2c(c1)OCO2 | 2.07 |
| O=C(NCc1ccc(Cl)cc1)c1cccc(NC(=O)c2ccccc2)c1 | -0.315 |
| COc1cccc(-n2nc(-c3ccnn3-c3ccc(F)cc3)c(=O)n(C)c2=O)c1 | -0.33 |
| COc1ccccc1C(=O)Nc1ccccc1N1CCOCC1 | -0.0371 |
| COC(=O)C(C(=O)Nc1cc(C)on1)C1CCCCCC1 (stereo not given) | -0.152 |

| SMILES | z-score |
| --- | --- |
| CC(C)CN1C(=O)c2ccc(C(=O)Nc3nccs3)cc2C1=O | -0.176 |
| O=C(O)c1nc(-c2ccccc2)n(-c2ccc(Cl)cc2)n1 | -0.161 |
| Cc1ccccc1N1CC(c2nc3ccccc3[nH]2)CC1=O (stereo not given) | -0.158 |
| CN(CCc1ccccn1)C(=O)CCNC(=O)Cn1cnc2ccccc2c1=O | 0.117 |
| Cc1ccc(C(=O)N2CCC(C(N)=O)CC2)cc1C | -0.31 |
| O=C(NCCCN1CCCC1=O)c1ccc(OCc2ccccc2)cc1 | -0.158 |
| CCCCCOC(=O)Cc1c(O)c2ccccc2n(C)c1=O | 0.588 |
| COC(=O)c1cccc(NC(=O)Cn2nnc3ccccc32)c1 | -0.317 |
| C=CCSC1=C(C#N)C(c2ccccc2Cl)CC(=O)N1 (stereo not given) | -2.04 |
| CCOC(=O)c1[nH]c2ccc(Br)cc2c1NC(=O)CCN1CCC(C(=O)OCC)CC1 | -0.0231 |
| COc1ccc(S(=O)(=O)N2CCCCCC2)cc1N(C)S(=O)(=O)c1ccc(C)cc1 | -0.0674 |
| COC(=O)COc1ccc(NC(=O)C2CCCO2)cc1 (stereo not given) | -0.0331 |
| Cc1ccc(NC(=O)CCC(=O)NCCO)cc1 | -0.739 |
| O=C(CN(c1ccc2c(c1)OCCO2)S(=O)(=O)c1ccccc1)Nc1ccc2c(c1)OCO2 | -0.293 |
| CS(=O)(=O)N(CC(=O)N1CCCCC1)Cc1ccc(Cl)cc1 | -0.185 |
| c1cnc(NC2CCCCCC2)nc1 | -0.209 |
| Cn1c(=O)c2c(nc(NCC3CCCO3)n2Cc2cccc(Br)c2)n(C)c1=O (stereo not given) | -0.125 |
| O=C(Cn1c(=O)oc2cc(S(=O)(=O)NCc3ccccc3)ccc21)NCc1ccco1 | -0.387 |
| CCOC(=O)C(C(=O)NCc1ccc(F)cc1)c1ncc(C(F)(F)F)cc1Cl (stereo not given) | -0.0848 |
| CCOc1ccc(NC(=O)CN2CCN(CC(=O)Nc3ccc(Cl)c(C(F)(F)F)c3)CC2)cc1 | -0.0101 |
| CCCN1CCN(CCCNC(=S)Nc2ccc(OC)cc2)CC1 | 0.0132 |
| O=C(OCn1nnc2ccccc2c1=O)c1ccc(N2CCOCC2)c([N+](=O)[O-])c1 | -0.247 |
